Variants at the floor of the assay are shown more often than the library holds them.
B1: glmS ribozyme (parent)
chain: AUAAAAGCGCCAGAACUACAGAAAUGUAGUUGACGAGGAGGAGGUUUAUCGAAUUUUCGGCGGAUGCCUCCAAA

Key:
Details in all cases: with glucosamine-6-phosphate
glucosamine-6-phosphate [1] = variants of: B1; assay: self-cleavage kobs at 40 uM GlcN6P; higher = faster cleavage; RNA array
Outline: (§1)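 E. coli RNA polymerase transcribed barcoded ribozyme variants in situ on sequenced MiSeq chips, which were tracked via a hybridised Cy3 probe at 37 °C. Tiles were imaged over ~14 h after glucosamine-6-phosphate (40 μM to 10 mM) in HEPES/KCl/Mg(OAc)2 buffer was flowed in. Normalised per-tile medians were fit to one- or two-exponential decays for kobs, and kcat and KM came from weighted Michaelis–Menten fits.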

glucosamine-6-phosphate [2] = variants of: B1; assay: self-cleavage kobs at 640 uM GlcN6P; higher = faster cleavage; RNA array
Outline: as §1

glucosamine-6-phosphate [3] = variants of: B1; assay: self-cleavage kobs at 160 uM GlcN6P; higher = faster cleavage; RNA array
Outline: as §1

glucosamine-6-phosphate [4] = variants of: B1; assay: self-cleavage kobs at 2500 uM GlcN6P; higher = faster cleavage; RNA array
Outline: as §1

glucosamine-6-phosphate [5] = variants of: B1; assay: self-cleavage kobs at 10000 uM GlcN6P; higher = faster cleavage; RNA array
Outline: as §1

AUAAAAACGCCAGAACUACAGAAAUGUAGUUGACGAGGAGGAGGUUUAUCGUAUUUUCGGCGCAUGCCUCCAAA [G7A A52U G63C]
< 1e-05 s⁻¹: self-cleavage kobs at 40 uM GlcN6P (glucosamine-6-phosphate [1]) | self-cleavage kobs at 640 uM GlcN6P (glucosamine-6-phosphate [2]) | self-cleavage kobs at 160 uM GlcN6P (glucosamine-6-phosphate [3]) | self-cleavage kobs at 2500 uM GlcN6P (glucosamine-6-phosphate [4])

AUAAAAACGGCAGAACUACAGAAAUGUAGUUGACGAGGAGGAGGUUUAUUGAAUUUUCGGCGGAUGCCUCCAAA [G7A C10G C50U]
< 1e-05 s⁻¹: self-cleavage kobs at 40 uM GlcN6P (glucosamine-6-phosphate [1])

AUAAAAACGCUAGAACUACAGAAAUGUAGAUGACGAGGAGGAGGUUUAUCGAAUUUUCGGCGGAUGCCUCCAAA [G7A C11U U30A]
< 1e-05 s⁻¹: self-cleavage kobs at 40 uM GlcN6P (glucosamine-6-phosphate [1])

AUAAAAACGCCAGAAUUACAGAAAUGUAGUUGACGAGGAGGAGGUUAAUCGAAUUUUCGGCGGAUGCCUCCAAA [G7A C16U U47A]
< 1e-05 s⁻¹: self-cleavage kobs at 40 uM GlcN6P (glucosamine-6-phosphate [1])

AUAAAAACGCCAGAACUACAGAAAUGUAGUUGAUGAGGAGGAGGUUUAUCGAAUUUUCGGCGGAUGCCUCCAAA [G7A C34U]
< 1e-05 s⁻¹: self-cleavage kobs at 40 uM GlcN6P (glucosamine-6-phosphate [1]) | self-cleavage kobs at 640 uM GlcN6P (glucosamine-6-phosphate [2]) | self-cleavage kobs at 160 uM GlcN6P (glucosamine-6-phosphate [3]) | self-cleavage kobs at 2500 uM GlcN6P (glucosamine-6-phosphate [4]) | self-cleavage kobs at 10000 uM GlcN6P (glucosamine-6-phosphate [5])

AUAAAAACGCCAGAACUACAGAAAUGUAGUUGACGAGGAGGAGGUUUAUUGAAUUUUCGGCGGAUGCCUCCAAA [G7A C50U]
< 1e-05 s⁻¹: self-cleavage kobs at 40 uM GlcN6P (glucosamine-6-phosphate [1]) | self-cleavage kobs at 640 uM GlcN6P (glucosamine-6-phosphate [2]) | self-cleavage kobs at 160 uM GlcN6P (glucosamine-6-phosphate [3]) | self-cleavage kobs at 2500 uM GlcN6P (glucosamine-6-phosphate [4]) | self-cleavage kobs at 10000 uM GlcN6P (glucosamine-6-phosphate [5])

AUAAAAACCCCAGAACUACAGAAAUGUAGUUGACGAGGAGGAGGUUUAUCGAAUUUUCGGCGGAUGCCUCCAAA [G7A G9C]
< 1e-05 s⁻¹: self-cleavage kobs at 40 uM GlcN6P (glucosamine-6-phosphate [1]) | self-cleavage kobs at 640 uM GlcN6P (glucosamine-6-phosphate [2]) | self-cleavage kobs at 160 uM GlcN6P (glucosamine-6-phosphate [3]) | self-cleavage kobs at 2500 uM GlcN6P (glucosamine-6-phosphate [4]) | self-cleavage kobs at 10000 uM GlcN6P (glucosamine-6-phosphate [5])

AUAAAAACGCCAAAACUACAGAAAUGUAGUUGACGAGGAGGAGGUUUAUCGAAUUUUCGGCGGAUGCCUCCAAA [G7A G13A]
< 1e-05 s⁻¹: self-cleavage kobs at 40 uM GlcN6P (glucosamine-6-phosphate [1]) | self-cleavage kobs at 640 uM GlcN6P (glucosamine-6-phosphate [2]) | self-cleavage kobs at 160 uM GlcN6P (glucosamine-6-phosphate [3]) | self-cleavage kobs at 10000 uM GlcN6P (glucosamine-6-phosphate [5])

AUAAAAACGCCACAACUACAGAAAUGUAGUUGACGAGGAGGAGGUUUAUCGAAUUUUCGGCGGAUGCCUCCAAA [G7A G13C]
< 1e-05 s⁻¹: self-cleavage kobs at 40 uM GlcN6P (glucosamine-6-phosphate [1]) | self-cleavage kobs at 10000 uM GlcN6P (glucosamine-6-phosphate [5])

AUAAAAACGCCAUCUCUACAGAAAUGUAGUUGACAAGGAGGAGGUUUAUCGAAUCUUCGGCGGGUGCCUCAAAA [G7A G13U A14C A15U G35A U55C A64G C71A]
< 1e-05 s⁻¹: self-cleavage kobs at 40 uM GlcN6P (glucosamine-6-phosphate [1]) | self-cleavage kobs at 10000 uM GlcN6P (glucosamine-6-phosphate [5])

AUAAAAACGCCAGAACUACAGAAAUGUAGUUAACGAGGAGGAGGUUUAUCGAAUUUUCGGCGGAUGCCUCCAAA [G7A G32A]
< 1e-05 s⁻¹: self-cleavage kobs at 40 uM GlcN6P (glucosamine-6-phosphate [1]) | self-cleavage kobs at 640 uM GlcN6P (glucosamine-6-phosphate [2]) | self-cleavage kobs at 2500 uM GlcN6P (glucosamine-6-phosphate [4])

AUAAAAACGCCAGAACUACAGAAAUGUAGUUGACAAGGAGGAGGUUUAUCGAAUUUUCGGCGGAUGCCUCCAAA [G7A G35A]
< 1e-05 s⁻¹: self-cleavage kobs at 40 uM GlcN6P (glucosamine-6-phosphate [1]) | self-cleavage kobs at 640 uM GlcN6P (glucosamine-6-phosphate [2]) | self-cleavage kobs at 160 uM GlcN6P (glucosamine-6-phosphate [3]) | self-cleavage kobs at 2500 uM GlcN6P (glucosamine-6-phosphate [4]) | self-cleavage kobs at 10000 uM GlcN6P (glucosamine-6-phosphate [5])
